In all, about 46,000 compounds went through this assay and about 60 (0.1%) were called active. Not shown: some 3% with an inconclusive outcome. Calls follow the shape of the dose curve; as a rule, active = well fitted inhibition curve with a large enough effect; inconclusive = small, poorly fitted or top-dose-only effect; inactive = no such curve, though single readings can be large or run the other way. This is one part of the list.
Experiment: Primary qHTS assay for Inhibitors of ovarian cancer metastasis using an organotypic tumor microenvironment (TME) model. Also: nearly all actives have a fitted effect of over 65% in size.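 As to activity change, negative = inhibition: plate controls were DMSO wells for no effect and tomatine positive control wells for full effect.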
Settings: SKOV3ip1-GFP adhesion/invasion on 3D omental model, fluorescence; series mostly up to 45.8 µM; activity change, negative = inhibition: at the top concentration
Summary of the method: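 Adhesion/invasion was scored as fixed GFP-labeled SKOV3ip1 cell counts (488/509 nm), normalized to DMSO and tomatine controls. Cancer cells in serum-free medium, with four compound doses (0.36-46 umol/L), sat 2 hr at RT then 16 hr at 37 C on a 48 hr fibroblast/mesothelial/ECM culture.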

Activity change, negative = inhibition, inactive:
Cc1cccc(CC(=O)NC2CC(=O)N(c3ccc4c(c3)OCCO4)C2)c1 (stereo not given) 8.62%
CCN(CC)S(=O)(=O)c1ccc(NC(=O)c2nn(C)c3c2CSc2ccccc2-3)cc1 -7%
CCc1ccc(CNC(=O)Cn2ccc3cc(S(=O)(=O)N4CCCCCC4)ccc32)cc1 -4.12%
O=C(NC1CCCC1)c1ccc2c(=O)n(Cc3ccccc3)c(SCc3ccc([N+](=O)[O-])cc3)nc2c1 10.2%
CCN(CCCNC(=O)CSc1cc(=O)n(CC)c2ccccc12)c1ccccc1 0.539%
CCOC(=O)N1CCN(Cc2nc3cc(NC(=O)CC)ccc3n2C(C)C)CC1 0.166%
CCc1ccc(-n2nc(CO)c(C(=O)NC(C)c3ccc(Cl)cc3)n2)cc1 (stereo not given) 25.3%
COc1cccc(CNC(=O)CN2C(=O)CCc3cc(S(=O)(=O)N4CCOCC4)ccc32)c1 0.82%
COc1ccc(SCc2cc(=O)c3ccc(C)c(C)c3[nH]2)cc1 0.969%
O=C(NCCc1ccc(Cl)cc1)c1cc(-c2ccccc2)n[nH]1 3.03%
Cc1c(C)n(Cc2ccccc2)c2ccc(C(=O)N3CCN(c4ccccc4F)CC3)cc12 -6.38%
Cc1nc2ccn(Cc3cccnc3)c(=O)c2cc1C(=O)N1CCN(c2ccccc2F)CC1 6.12%
Cc1ccc(Sc2ccc(N3CCCC(C(=O)Nc4ccc(Br)cc4)C3)nn2)cc1 (stereo not given) -12%
COc1ccc(C2=C(C)C(N3CCC(C(=O)NCc4ccc(C)o4)CC3)=NS2(=O)=O)cc1 -5.29%
COc1cc2nc(N(C)CCCNC(=O)C3CCCO3)nc(N)c2cc1OC (stereo not given) -3.16%
Cc1ccc(C)c(N2CCN(c3nc4ccccc4c(=O)n3-c3ccc(Cl)cc3)CC2)c1 -14.1%
COc1ccc2c(c1)Cc1sc(NC(=O)c3ccccc3C)nc1-2 -8.26%
CCOc1ccc(-c2nnc(SCC(=O)NC3CCCCC3)nc2-c2ccc(OCC)cc2)cc1 -4.47%
CC(=O)c1ccc(NC(=O)Nc2ccc3snnc3c2)cc1 -11.6%
Cc1ccc(NC(=O)Cc2ccc(NC(=O)N3CCCCc4ccccc43)cc2)cc1Cl -2.66%
COc1ccc(/C=C/C(=O)Nc2ccc(C)cc2)cc1 -1.73%
CCN(CC)c1ccc(NC(=O)Cn2ncc3c(C)n(Cc4ccccc4F)c(C)c3c2=O)c(C)c1 9.57%
CCCCOc1ccc(C(=O)NCC(c2ccc(Cl)cc2)N2CCOCC2)cc1 (stereo not given) 0.694%
Cc1cccc(C)c1-n1ncc(C(=O)NCCCN2CCCCC2)c1C1CCN(C(=O)OC(C)(C)C)CC1 -23.4%
CCOC(=O)c1ccc(NC(=O)CN(Cc2ccc(C)cc2)S(=O)(=O)c2ccc(C)cc2)cc1 0.522%
CC(C)Oc1ccc(CNC(=O)CN2C(=O)CCn3nc(-c4cn(C)c5ccccc45)cc32)cc1 -6.42%
O=C(Nc1ccc(Oc2ccccc2)cc1)c1ccc(F)c(S(=O)(=O)N2CCN(c3cccc(Cl)c3)CC2)c1 8.85%
Cc1ccc(C)c(N2C(=O)N(Cc3ccccc3C)c3ccccc3S2(=O)=O)c1 5.3%
Cc1ccccc1OCC(=O)Nc1ccc2oc(-c3ccc(F)cc3)nc2c1 1.51%
Fc1ccccc1N1CCN(Cc2nnc(-c3ccc4c(c3)OCO4)o2)CC1 0.827%
CC1CN(C(=O)Nc2ccc(C(=O)NCc3ccccc3F)cc2)c2ccccc2S1 (stereo not given) -17.8%
COC(=O)c1ccc(NC(=O)CSc2n[nH]c(-c3ccccc3)n2)cc1 0.279%
CCN1CCN(CC(=O)Nc2ccc(-c3cccc4c(=O)cc(N5CCOCC5)oc34)c3sc4ccccc4c23)CC1 14.6%
CCOC(=O)c1cc2c(=O)n3ccccc3nc2n(Cc2ccco2)c1=NC(=O)c1ccc(Br)cc1 -24.7%
Cc1ccc(NC(=O)c2nnn(Cc3ccccc3)c2N)cc1C -8.83%
CCc1ccc(NC(=O)CN(C)S(=O)(=O)c2ccc3c(c2)c(=O)n(C)c(=O)n3C)cc1 1.85%
COc1ccc(NC(=O)c2ccco2)cc1NC(=O)COc1cccc(C)c1C -3.27%
COc1ccc(C)cc1NC(=O)COc1cc(=O)n(C)c2ccccc12 47.4%
O=C(CSc1oc(-c2ccccc2)nc1S(=O)(=O)c1ccc(Br)cc1)c1ccccc1 1.03%
Cc1ccccc1-c1nc(SCC(=O)NCc2ccc(F)cc2)c2c(=O)n(C)c(=O)n(C)c2n1 -4.01%
Cc1ccc2nc(N(CCCN(C)C)C(=O)c3ccco3)sc2c1 -8.55%
O=C(CCn1nc(-c2ccccc2)c2ccccc2c1=O)Nc1ccccc1 -7.63%
COc1ccccc1N1CCN(c2nc3ccccc3n3cnnc23)CC1 0.772%
COc1ccc(-c2nc(-c3cc4cc(Br)ccc4oc3=O)cs2)cc1 6.81%
Cc1ccc2c(c1)N(C(=O)N1CCC(C(=O)NCc3cccc(Br)c3)CC1)CCO2 2.29%
CC(=O)Nc1ccc(NC(=O)c2cc(=O)c3ccccc3o2)cc1 0.713%
COc1ccc(OCc2ccc(-c3nc(C#N)c(N4CCN(c5ccccc5)CC4)o3)o2)cc1 10%
Cc1cc(-c2ccc(C)c(S(=O)(=O)Nc3cccc(C)n3)c2)on1 3%
COc1cccc2cc(S(=O)(=O)c3ccc(F)c(C)c3)c(=O)oc12 5.33%
O=C(COc1ccccc1F)OCc1cc(=O)n2nc(C3CCCCC3)sc2n1 -1.58%
COc1ccc(Nc2nc3ccccc3nc2NS(=O)(=O)c2ccc(C)cc2)c(OC)c1 -8.84%
COC(=O)c1sc2cccc(F)c2c1S(=O)(=O)N1CCN(c2cccc(OC)c2)CC1 -12.5%
CCOC(=O)c1cc(-c2ccccc2)n(CCC(=O)NCc2ccccc2Cl)c1C 2.86%
Fc1ccc(N2CCN(c3nc4ccccc4c4nc(-c5cccnc5)nn34)CC2)cc1 12%
Cc1c(Cl)cccc1-c1ccc(CNCCCSc2nnnn2C)o1 -3.14%
CCCCN(C)CCNC(=O)C1CCCN(S(=O)(=O)c2cccc3nsnc23)C1 (stereo not given) 48.2%
Cc1nc2nc(SCC(=O)N(C)Cc3ccccc3)nn2c(C)c1Cc1ccccc1Cl -16.7%
Cc1cc(C)c(S(=O)(=O)N2CCC(n3c(C(F)(F)F)nc4cccnc43)CC2)c(C)c1 -12.8%
O=C1Nc2ccccc2Oc2cc(Oc3cccc(Cl)c3)ccc21 -5.68%
CCOC(=O)C1CCN(CC(=O)Nc2cc(C)c3c(=O)oc4ccccc4c3n2)CC1 -6.98%
Cc1cn2c(=O)cc(COc3cccc(NC(=O)c4ccc(C(C)(C)C)cc4)c3)nc2s1 -2.92%
Cc1ccc(NC(=O)CN(C)S(=O)(=O)c2ccc3c(c2)n(C)c(=O)c(=O)n3C)cc1F 5.9%
N#CC(=C(N)Sc1ccc(N)cc1)c1ccccc1C(F)(F)F 6.86%
O=C(CCn1cnc2onc(-c3ccc(F)cc3)c2c1=O)Nc1ccc(F)c(Cl)c1 -5.91%
Cc1nn(-c2ccccc2)c2nc(C3CC3)cc(C(=O)Nc3ccc(F)cc3)c12 2.05%
CCn1nc(C)c2c(-c3ccccc3)cc(=O)n(C(C)C(=O)Nc3cccc(F)c3)c21 (stereo not given) 0.658%
CCOc1ccc(NC(=O)CSc2oc(-c3cccs3)nc2S(=O)(=O)c2ccc(C)cc2)cc1 -21.9%
Cc1ccc(C)c(Nc2nnc(-c3ccc(C)c(S(=O)(=O)N4CCN(C)CC4)c3)c3ccccc23)c1 -5.81%
Cc1ccccc1CCNC(=O)c1ccc(NC(=O)N2CC(C)Sc3ccccc32)cc1 (stereo not given) 3.11%
COc1ccccc1NC(=O)c1sc2nc3c(c(C(F)(F)F)c2c1N)CN(C(C)=O)CC3 3.5%
O=C(COc1ccc(Cl)cc1)NCC(c1ccco1)S(=O)(=O)c1ccccc1 (stereo not given) -8.66%
Cc1ccn2c(Nc3ccccc3C)c(-c3ccc(N4CCOCC4)cc3)nc2c1 -8.33%
Cc1cc(C)c(NC(=O)CSc2n[nH]c(-c3ccccc3Cl)n2)c(C)c1 -5.75%
COC(=O)c1ccc(NC(=O)CN(Cc2ccccc2)S(=O)(=O)c2ccc(C)cc2)cc1 7.51%
COc1cc(C2C(=O)N(C3CCCCCC3)CC(=O)N2Cc2ccccc2)ccc1OC(C)C (stereo not given) -10.2%
C=C(C)Cn1c(=O)c2c(nc3n2CCN3c2cc(C)cc(C)c2)n(C)c1=O -11.6%
COc1ccc(N2CCN(C(=O)C3CCN(Cc4nc(-c5ccc(Cl)cc5)oc4C)CC3)CC2)cc1 25.4%
Cc1ccc(Cl)cc1N1CCN(C(=O)c2cnn(C(C)(C)C)c2C2CCN(C(=O)OC(C)(C)C)CC2)CC1 -4.42%

outcome, inactive:
COc1ccc(OC)c2sc(N(Cc3cccnc3)C(C)=O)nc12
COc1cccc(CNC(=O)c2ccc(-c3nc(CS(=O)c4ccccc4)c(C)o3)cc2)c1 (stereo not given)
CCOC(=O)c1ccc(N2C(=O)c3n[nH]c(-c4ccco4)c3C2c2ccc(OC)cc2OC)cc1 (stereo not given)
COc1cccc(-c2nc(S(=O)(=O)c3ccc(C)cc3)c(N3CCCCCC3)o2)c1
COc1ccc(-n2c(SCc3nc(-c4ccc(C)cc4)no3)nnc2-c2ccccc2)cc1
COC(=O)c1nnn(-c2cccc(C)c2)c1N
Cc1ccc(-n2nc(CO)c(C(=O)NCc3ccccn3)n2)cc1
Cc1cccc(C)c1NC(=O)Nc1csc2c1CCCC2
CCc1ccc(-n2nnc(-c3nsc(NC(=O)c4ccccc4Cl)n3)c2C)cc1
CCc1ccc(S(=O)(=O)c2cn(C)c3cc(N4CCOCC4)c(F)cc3c2=O)cc1
CCOc1ccc(NC(=O)c2c(C)nn(-c3ccc(F)cc3)c2-n2cccc2)cc1
C=CCc1ccccc1OCCSc1nc(-c2cccs2)nc2cc(=O)[nH]n12
O=C(Nc1ccc(OCc2cc(=O)n3c4c(sc3n2)CCCC4)cc1)c1cccc(F)c1
CCc1ccc(NC(=O)C(=O)NCCc2csc(-c3cccc(F)c3)n2)cc1
Cc1nn(-c2ccc(N3CCOCC3)nn2)c(C)c1CCC(=O)NCc1ccccc1
CN(C)CCNC(=O)CN1N=C(c2ccccc2)CCC1=O
CCCSc1ncc(Cl)c(C(=O)Nc2ccc(S(=O)(=O)N3CCC(C)CC3)cc2)n1
